Some of the results follow.

The assay deals with T1, C. trachomatis L2/434/Bu expressing GFP (CTL2-GFP).
T1 construct: L2/434/Bu GFP intracellular growth in HeLa cells
Also noted: species or system HeLa; C. trachomatis total inclusion area by high-content imaging, normalised to DMSO. Particulars: total inclusion area; 28.5 h, 10 µM; inhibitor. The gist of the method: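 Imaging read-out: GFP inclusions and Hoechst nuclei captured by high-content imaging after fixation. Inclusion area/number = chlamydial growth; nuclei count = host cell viability. MIC calculated per earlier method.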
In the case of `Nc1nc(N2CCCCC2)nc2ccccc12` [CBK012270], the “% of control remaining” value was 65.6804.

Regarding `CC(C)C(=O)N1CCC(n2nc(-c3cccs3)ccc2=O)CC1` [CBK284181], the “% of control remaining” value is listed as 73.5811.

Take `CSCCCNC(=O)c1ccc2c(c1)nc(N1CC[C@H](O)C1)n2C` [CBK306807]: the “% of control remaining” value worked out at 79.6581.

In the case of `Cc1nnc(SCC(=O)N2CCN(c3ccc(Cl)cc3)CC2)s1` [CBK307389], the “% of control remaining” value was 55.4503.

`COc1cc(C(c2c(C(=O)O)[nH]c3ccccc23)c2c(C(=O)O)[nH]c3ccccc23)cc(I)c1O` [CBK267804]: the “% of control remaining” value came to 123.796.

As to `CSCCN1CCC(Oc2nccnc2OCCN2CCOCC2)CC1` [CBK082935], the “% of control remaining” value worked out at 91.8724.

Take `CN1CCN(C(=O)CN(CC(=O)N2CCN(C)CC2)S(=O)(=O)c2ccc(Cl)cc2)CC1` [CBK269627]: the “% of control remaining” value worked out at 109.412.

On to `O=[N+]([O-])c1ccccc1S(=O)(=O)Nc1ccc(S(=O)(=O)Nc2ccccc2)cc1` [CBK264796], for which the “% of control remaining” value was 107.214.

In the case of `O=C(CN1CCCC1Cn1cncn1)NCCc1ccsc1` (stereo not drawn) [CBK305113], the “% of control remaining” value is recorded as 74.262.

With `CCN(CC)Cc1ccc(C(=O)N2CCC(c3ccncc3)CC2)o1` [CBK283051], the “% of control remaining” value came out at 72.4491.

For the compound `CCCC(C)C(=O)Nc1ccncc1` (stereo not drawn) [CBK057984], the “% of control remaining” value turned out to be 48.012.

For the compound `CC1(C)Cc2c(cnn2-c2ccc(F)cc2)C(NS(C)(=O)=O)C1` (stereo not drawn) [CBK307403], the “% of control remaining” value was determined as 66.745.

Consider `CCc1nc2ccc(C(=O)Nc3ccc(NC(C)=O)cc3)cn2c1N(CC)Cc1ccc(OC)c(OC)c1` [CBK146994], for which the “% of control remaining” value is given as 95.608.

Turning to `O=S1(=O)C=C(N2CCCCCC2)CC1` [CBK025571C], the “% of control remaining” value is 60.2399.

For the compound `O=c1cc(O)c2ccccc2n1Cc1ccccc1Cl` [CBK291255], the “% of control remaining” value was 115.64.

On to `Cc1ccc(C(=O)Nc2nc(C)c(-c3n[nH]c(=S)n3C)s2)cn1` [CBK295327], for which the “% of control remaining” value was determined as 104.324.

For the compound `Nc1ccc(S(=O)(=O)O)c2cccc(S(=O)(=O)O)c12` [CBK261492N], the “% of control remaining” value is 97.5195.

Take `COc1ccc([C@@]23CC[C@H](NC(=O)CSc4nccn4C)C[C@@H]2N(C)CC3)cc1OC` [CBK036444]: the “% of control remaining” value is reported as 65.7174.

In the case of `CC(C)CN1CCC[C@H]1c1nc(-c2ccc(-n3ccnc3)nc2)no1` [CBK288894], the “% of control remaining” value is on record as 112.619.

As for `CCNC(=O)N1CC2(CCN(CCOCC)CC2)c2ccccc21` [CBK136972], the “% of control remaining” value came out at 87.5339.

For `O=C(O)/C=C/C(=O)Nc1ccc(S(=O)(=O)NCc2ccco2)cc1` [CBK264500], the “% of control remaining” value is 104.775.

For the compound `CC(C)N1CCC(CNC(=O)c2cccc(N3CCCC3=O)c2)CC1` [CBK282641], the “% of control remaining” value was 101.521.

On to `NCc1oc(-c2ccccc2)cc1C(=O)O` [CBK265941C], for which the “% of control remaining” value turned out to be 87.5189.

Consider `O=C(Cn1cc(C(=O)NCc2ccccc2)ccc1=O)NC1(c2ccccc2)CCCC1` [CBK285753], for which the “% of control remaining” value was determined as 105.014.

As for `COc1ccc(S(=O)(=O)NCCN2CCOCC2)c(C)c1C` [CBK266479], the “% of control remaining” value is 118.191.

For `CN(C(=O)c1cc(S(=O)(=O)N2CCOCC2)ccc1F)C1CCCCC1` [CBK304580], the “% of control remaining” value worked out at 61.8997.

In the case of `Cc1sc2ncnc(SCC(=O)Nc3sc4c(c3C#N)CCCC4)c2c1-c1ccccc1` [CBK265938], the “% of control remaining” value amounted to 82.261.

In the case of `O=C(NCc1nnc(-c2cccs2)o1)C1c2ccccc2Oc2ccccc21` [CBK286297], the “% of control remaining” value turned out to be 114.746.

Regarding `COC(C)CN(C)C(=O)c1oc2cc(C)ccc2c1C` (stereo not drawn) [CBK282043], the “% of control remaining” value is 123.071.

For `Cn1ccnc1C(NC(=O)N1CCCCC1)c1ccc(F)c(F)c1` (stereo not drawn) [CBK283832], the “% of control remaining” value worked out at 64.0971.

On to `Cc1ccc(C(=O)C2=C(O)C(=O)N(CCCN(C)C)C2c2ccccn2)o1` (stereo not drawn) [CBK269575], for which the “% of control remaining” value worked out at 77.9316.

As for `CC(C)NC(=O)N1CCCC2(C1)NCCc1c2[nH]c2ccccc12` (stereo not drawn) [CBK046952], the “% of control remaining” value is listed as 93.634.

Consider `Cn1ccnc1C1(O)CCN(C(=O)Nc2ccccc2F)CC1` [CBK282280], for which the “% of control remaining” value is 75.7144.

With `Cc1ccccc1-c1cc(C(=O)Nc2ccc(S(N)(=O)=O)cc2)c2cc(Cl)ccc2n1` [CBK267741], the “% of control remaining” value worked out at 104.595.

In the case of `O=C(c1ccc2ncccc2c1)N1CCN(C(=O)c2ccco2)CC1` [CBK144461], the “% of control remaining” value is recorded as 120.265.

On to `Cn1c(CN2CCN(S(=O)(=O)c3ccccc3)CC2)nc2cc([N+](=O)[O-])ccc21` [CBK268321], for which the “% of control remaining” value came out at 78.7172.

In the case of `CC(=O)NCCSc1cc(N2CCCC2)ncn1` [CBK105621], the “% of control remaining” value was determined as 122.987.

As to `Cc1c(Cc2c(Cl)cccc2Cl)c(=O)n(C)n1C` [CBK113274], the “% of control remaining” value stood at 68.3889.

For the compound `CC1(C)NC(C)(C)C(=N\O)/C(=N\O)C/1=N\O` [CBK261512], the “% of control remaining” value is recorded as 85.9076.

Turning to `Cc1ccc(C(=O)C2=C(O)C(=O)N(Cc3cccnc3)C2c2cccc([N+](=O)[O-])c2)cc1` (stereo not drawn) [CBK264593], the “% of control remaining” value is given as 105.444.

On to `COc1cccc(Oc2cnc(-c3ccc(C(=O)N(C)C)cc3)c(N)n2)c1` [CBK145185], for which the “% of control remaining” value came out at 97.0097.

In the case of `O=C(CCN1CCN2CCCCC2C1)N1c2ccccc2Sc2ccc(Cl)cc21` (stereo not drawn) [CBK278257F], the “% of control remaining” value was found to be 47.3028.

As for `CS(=O)(=O)Nc1cccc(-c2cnc3[nH]c(=O)n(Cc4ccc(S(C)(=O)=O)cc4)c3n2)c1` [CBK065061], the “% of control remaining” value is 106.784.

With `Cc1cc(C(=O)NCc2c(-c3ccccc3)noc2C)n[nH]1` [CBK144076], the “% of control remaining” value was 92.6387.

Turning to `CCOc1ccc(NC(=O)NC(=O)C2CCN(C(C)=O)CC2)cc1` [CBK034852], the “% of control remaining” value worked out at 95.7816.

As for `Cc1cn(C2CC(O)C(CNC(=O)C(F)(F)F)O2)c(=O)[nH]c1=O` (stereo not drawn) [CBK201200], the “% of control remaining” value was determined as 138.566.

`CSc1nc(N)c2c3c(sc2n1)CN(C)CC3` [CBK018303]: the “% of control remaining” value is on record as 101.746.

As for `CN(C)c1nc(N2CCOCC2)c(C#N)c(=O)o1` [CBK007447], the “% of control remaining” value was determined as 46.578.

Turning to `CC(C)[C@H](CO)Nc1nc(-c2cccc3ccccc23)cnc1N` [CBK063701], the “% of control remaining” value is reported as 86.3538.

As to `O=C1CCCC[C@@H]2[C@@H](N1)[C@H](c1ccccc1)CN2Cc1ccnc2ccccc12` [CBK286280], the “% of control remaining” value is 78.6204.

On to `CCCc1nn(CC(=O)NC(C)(C)C)c(=O)c2cc3ccsc3n12` [CBK284148], for which the “% of control remaining” value came to 84.7523.

Consider `c1ccc2c(c1)CCN(Cc1nc3ccccc3[nH]1)C2` [CBK126396], for which the “% of control remaining” value is on record as 103.207.

With `COc1ccc(OCC(F)(F)F)c(C(=O)N2CCSCC2)c1` [CBK005950], the “% of control remaining” value is 70.2818.

In the case of `Nc1nc(SCC(=O)c2ccc3c(c2)OCCO3)n[nH]1` [CBK266554], the “% of control remaining” value amounted to 92.314.

On to `Cc1nc(S(=O)(=O)N2CCC3(CCCCC3)C2)cn1C` [CBK306306], for which the “% of control remaining” value was found to be 94.6215.

For the compound `CCOC(=O)CCc1nc2ccccc2nc1O` [CBK264526], the “% of control remaining” value came out at 116.234.

Consider `CCNC(=O)N[C@H]1CC[C@]2(C)CCC([C@H](C)C(=O)N3CCCCC3)[C@H](O)[C@H]2[C@@H]1C` (stereo partly drawn) [CBK289455], for which the “% of control remaining” value came to 112.909.

With `CCCc1nnc(SCC(=O)Nc2ccc(CN3CCOCC3)cc2)[nH]1` [CBK305583], the “% of control remaining” value worked out at 105.863.

Regarding `CCOc1cc(NC2CCN(C(=O)Cc3ccncc3)CC2)ncn1` [CBK304752], the “% of control remaining” value amounted to 67.8828.

Take `CN1CCN(c2ccc(-c3cnc(N)c(NC4CCOCC4)n3)cc2)CC1` [CBK064114]: the “% of control remaining” value is 91.7513.

As to `CCOc1cc(/C=C(/C#N)C(N)=S)ccc1OCC(=O)N1CCCC1` [CBK268765], the “% of control remaining” value was 112.245.

With `O=C1CC(c2ccco2)Cc2c1cnn2-c1ccccc1` (stereo not drawn) [CBK287860], the “% of control remaining” value turned out to be 77.7743.

For the compound `Cc1cc(C)c2nc(O)nc(O)c2c1` [CBK017986], the “% of control remaining” value was found to be 84.6457.

`CCN(CC)C(=O)c1ccccc1NS(=O)(=O)c1ccc(C)cc1` [CBK045416]: the “% of control remaining” value is 100.212.

Take `CCc1cc(Br)ccc1S(=O)(=O)NCCOc1ccccc1` [CBK044882]: the “% of control remaining” value is on record as 84.5232.

As to `Cc1cccn2c(CN3CCCC(O)C3)c(C(=O)N3CCOCC3)nc12` (stereo not drawn) [CBK306545], the “% of control remaining” value amounted to 85.92.

`O=C(O)c1ccc(N2C(=O)C3C4C=CC(C4=C(c4ccccc4)c4ccccc4)C3C2=O)cc1` (stereo not drawn) [CBK263030]: the “% of control remaining” value stood at 101.901.

For `CS(=O)(=O)Nc1nnc(C2CCCCC2)s1` [CBK069540], the “% of control remaining” value was found to be 81.5681.

Consider `COc1ccc(CCc2nc(C)cc(CN(C)C)c2O)cc1OC` [CBK278320C], for which the “% of control remaining” value is recorded as 86.6542.

For `COc1cccc2c(C(C(=O)O)N3CCN(c4ccc(C(F)(F)F)cn4)CC3)c[nH]c12` (stereo not drawn) [CBK286857], the “% of control remaining” value is 132.643.

Consider `Cc1nn(C)cc1-c1cncn1CCN(C)C1CCCC1` [CBK281780], for which the “% of control remaining” value came out at 105.931.

Take `Cc1cccc(N2C(=O)SC(N(CC(=O)O)c3cccc(C)c3)C2=O)c1` (stereo not drawn) [CBK287095]: the “% of control remaining” value worked out at 101.82.

Regarding `O=C(NCc1cccc2ccccc12)c1ccccc1-n1cccc1` [CBK149585], the “% of control remaining” value amounted to 66.5706.

`Cc1ccc(-c2nc3ccccc3[nH]2)cc1` [CBK085933]: the “% of control remaining” value amounted to 24.3352.

For the compound `CCn1nc2c(C)cc3ccc(OC)cc3n2c1=O` [CBK283796], the “% of control remaining” value amounted to 90.6258.

Turning to `COCCNC(=O)c1cc2n(n1)C(C(F)(F)F)CC(c1cccs1)N2` (stereo not drawn) [CBK307614], the “% of control remaining” value is on record as 71.1994.

Regarding `O=C1CNC(=S)N1c1cccc(C(F)(F)F)c1` [CBK288398], the “% of control remaining” value turned out to be 60.242.

With `COc1ccccc1C1CCC(NCCCC(=O)c2ccc(F)cc2)CC1` (stereo not drawn) [CBK015965C], the “% of control remaining” value stood at 43.4447.

Regarding `CCN(CC)C(=O)c1ccc(N)cc1C` [CBK022686C], the “% of control remaining” value was 56.3109.

With `Cc1ccc(C(=O)NCc2ccc(-c3n[nH]cc3C(=O)N(C)c3ccccc3)cc2)cc1` [CBK285600], the “% of control remaining” value was determined as 96.571.

In the case of `COc1ccc(-n2c(=O)[nH]cc(C(=O)N3CCc4ccccc43)c2=O)cc1OC` [CBK287555], the “% of control remaining” value was 110.879.
